# Results reported in PubChem BioAssay AID1347043 (National Center for Advancing Translational Sciences (NCATS), 2019).
# Screen size: about 76,000 compounds; about 1,900 (2.5%) were called active. The shares of active, inactive and inconclusive entries below differ from those in the screen. Calls follow the shape of the dose curve; as a rule, active = well fitted inhibition curve with a large enough effect; inconclusive = small, poorly fitted or top-dose-only effect; inactive = flat fitted curve, though single readings scatter. Potencies of inconclusive entries are doubtful fits and often do not repeat.
# Biological target: Luciferin 4-monooxygenase (Photinus pyralis) (UniProt P08659)
# Test: Firefly luciferase inhibition profiling of diverse chemical library using quantitative high-throughput screening; also: nearly all actives have a fitted effect of over 65% in size
# Conditions: purified P. pyralis luciferase, luminescence, biochemical; series mostly up to 115 µM
# Description: Firefly (Photinus pyralis) luciferase is one of the most commonly used transcriptional reporters for a number of reasons. It is considered one of the more dynamically responsive reporters - that is, responsive to changes in reporter transcription - as it requires no post-translational modifications and is enzymatically active directly after protein synthesis (Wood, 1998). Additionally, the half-life of the luciferase protein is short relative to other reporter-gene products (Wood, 1995). Whereas reporters with long half-lives potentially allow for increased signal due to accumulation of reporter-gene product, once accumulated in the cell, dynamic changes in reporter-gene expression may be difficult to detect(Fan and Wood, 2007; Almond et al., 2004). It has been shown that wild-type P. pyralis luciferase has a half-life of approximately four hours in mammalian cells (Thompson et al., 1991). Firefly luciferase reporter-gene assays are also generally considered one of the most sensitive assay types (Wood, 1995; Wood, 1998). Although light produced in a bioluminescence reaction is of lower intensity than that produced during fluorescence emission, this is offset by little to no background light inherent to luminescent assays. Thus the luciferase reporter can be expressed at much lower levels than fluorescent proteins while still providing robust signal. However, it was initially observed, in 1991, by Thompson et al., that compounds that resemble the substrates of firefly luciferase (FLuc) can act as competitive inhibitors of the enzyme, and that these compounds, upon interaction with luciferase in the cell, can actually stabilize the protein and increase its half-life. Accumulated intracellular FLuc protein can be measured as an increase in luminescence signal, upon addition of detection reagents (which contain high concentrations of FLuc substrates) commonly used in high-throughput screening. In cell-based reporter gene assays that use FLuc as the reporter gene to quantitate the potential influence of a given compound against the target biology, this apparent increase in luminescence can mistakenly be interpreted as identification of a compound that is active against the target of interest. FLuc inhibitory compounds that stabilize the FLuc protein will give an identical read-out, making it difficult to distinguish compounds that are active against the target from those active against FLuc. In summary, the results generated here constitutes a valuable resource for the scientific community and provides insight on identifying compounds with inhibitory activity for the commonly-used reporter, firefly luciferase. References: -Almond, B., Zdanovsky, A., Zdanovskaia, M., Ma, D., Stecha, P., Paguio, A., Garvin, D., and Wood, K. (2004). Introducing the Rapid Response Reporter Vectors. Promega Notes 87, 18-22. -Fan, F., and Wood, K.V. (2007). Bioluminescent assays for high-throughput screening. Assay Drug Dev Technol 5, 127-136. -Thompson, J.F., Hayes, L.S., and Lloyd, D.B. (1991). Modulation of firefly luciferase stability and impact on studies of gene regulation. Gene 103, 171-177. -Wood, K.V. (1998). The chemistry of bioluminescent reporter assays. Promega Notes 65, 14-20. -Wood, K.V. (1995). Marker proteins for gene expression. Curr Opin Biotechnol 6, 50-58.
# Reagents: 50mM Tris acetate, pH 7.5; 10mM Mg acetate; 10uM D-luciferin (Sigma #L9504); 10uM ATP; 0.01% Tween-20; 0.05% BSA; 10nM P. pyralis luciferase (Sigma #L9506) Control compounds used were two known firefly luciferase inhibitors (compounds (2) and (5) in Auld et al., 2010), and DMSO. Assay Summary: Three microliters containing firefly luciferase substrates in buffer (final concentrations: 50mM Tris acetate, pH 7.5, 10mM Mg acetate, 0.01% Tween-20, 0.05% BSA, 10uM D-luciferin, and 10uM ATP) are dispensed into each well of a Greiner white, solid-bottom 1536-well format plate using a flying reagent dispenser (FRD). […]
# Tags tell the direction and shape of the fitted curve.
# Chain of UniProt P08659 (P08659 whole entry, looked up): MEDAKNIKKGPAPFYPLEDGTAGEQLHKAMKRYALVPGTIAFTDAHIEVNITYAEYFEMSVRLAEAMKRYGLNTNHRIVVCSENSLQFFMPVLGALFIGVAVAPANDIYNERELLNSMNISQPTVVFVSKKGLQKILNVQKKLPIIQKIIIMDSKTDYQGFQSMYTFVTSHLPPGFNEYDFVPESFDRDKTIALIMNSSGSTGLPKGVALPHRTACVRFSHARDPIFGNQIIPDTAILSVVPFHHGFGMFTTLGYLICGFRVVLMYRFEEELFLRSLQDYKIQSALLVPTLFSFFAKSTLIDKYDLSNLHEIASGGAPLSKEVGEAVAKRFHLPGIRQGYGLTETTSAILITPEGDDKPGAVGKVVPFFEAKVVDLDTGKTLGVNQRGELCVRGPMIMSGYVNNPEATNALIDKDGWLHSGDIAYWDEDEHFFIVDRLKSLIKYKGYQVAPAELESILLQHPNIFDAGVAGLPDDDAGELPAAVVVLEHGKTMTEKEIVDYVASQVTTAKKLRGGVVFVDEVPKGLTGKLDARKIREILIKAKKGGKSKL
row,SMILES,Potency
1,COc1ccccc1OCCNC(=O)CCC1CCN(C(=O)c2ccccc2)CC1,"inconclusive: 56.2 µM [inhibitor, partial curve]"
2,Cc1ccc(-c2cc3c(=O)n(CCNC(=O)c4cc(Cl)ccc4F)ccn3n2)c(C)c1,"inconclusive: 25.1 µM [inhibitor, partial curve, poor fit]"
3,Cc1ccc(-c2noc([C@@H]3CCCN3C(=O)c3ccc(C(C)(C)C)cc3)n2)cc1,"inconclusive: 28.2 µM [inhibitor, partial curve, poor fit]"
4,COCCN1C(=O)CCc2cc(NC(=O)c3ccc(C)cc3C)ccc21,active: 39.8 µM
5,COc1ccc(NC(=O)N2C[C@@H]3C[C@H](C2)c2ccc(NC(=O)Nc4ccc(C(C)=O)cc4)c(=O)n2C3)cc1,"inconclusive: 44.7 µM [inhibitor, partial curve]"
6,CC(Oc1ccccc1)C(=O)N1CCC(n2cc(-c3nc(-c4ccccc4)no3)nn2)CC1 (stereo not given),inactive
7,COc1ccc(-c2noc([C@@H]3C[C@H](NC(=O)COCC(=O)O)CN3C)n2)cc1,active: 63.1 µM
8,Cc1cccc(NC(=O)Nc2ccc(C)n(CC(=O)NCCC(C)C)c2=O)c1,"inconclusive: 1.78 µM [inhibitor, full curve]"
9,O=C(Nc1ccc(-c2nnc3n2CCCC3)cc1)c1ccccn1,"inconclusive: 44.7 µM [inhibitor, partial curve]"
10,O=C(Nc1ccccc1)c1cc2n(n1)CC(c1ccc3c(c1)OCO3)OC2 (stereo not given),"inconclusive: 44.7 µM [inhibitor, partial curve, poor fit]"
11,O=C(O)c1ccc(CN2CC[C@@H](c3ccc4ccccc4c3)[C@H](O)C2)cc1,inactive
12,COCCNC(=O)c1ccc(OC2CCN(C(C)CCSC)CC2)c(Cl)c1 (stereo not given),inactive
13,CNC(=O)[C@@H]1C[C@H](n2cc(C(C)(C)NC(=O)c3ccccc3OC)nn2)CN1,inactive
14,COc1ccc(-c2ccc3ncc(Nc4ccc(OC)c(OC)c4)n3n2)cn1,"inconclusive: 44.7 µM [inhibitor, partial curve]"
15,Cc1nnc(-c2cc(N3CCN(c4ccccn4)CC3)ccn2)n1C(C)C,"inconclusive: 56.2 µM [inhibitor, partial curve, poor fit]"
16,CCC(CC)NC(=O)CCC1CCN(C(=O)c2ccccc2)CC1,active: 25.1 µM
17,COC1CCC12CCN(C(=O)Nc1ccccc1)CC2 (stereo not given),"inconclusive: 39.8 µM [inhibitor, partial curve]"
18,C[S+](=O)([O-])Nc1cccc(Nc2cnc3ccc(-c4cccc(CO)c4)nn23)c1,"inconclusive: 70.8 µM [inhibitor, partial curve]"
19,COC(=O)c1cccc(NC(=O)c2ccc3c(c2)N(C)C2CCCCCN2C3=O)c1 (stereo not given),"inconclusive: 50.1 µM [inhibitor, partial curve]"
20,O=C(c1cccc(O)c1)N1CCNc2cnc(Nc3cccc(F)c3)nc2C1,"inconclusive: 89.1 µM [inhibitor, partial curve, poor fit]"
21,CN1C[C@@H](NC(=O)c2ccc(C#N)cc2)C[C@H]1c1nc(-c2cncnc2)no1,active: 44.7 µM
22,Cc1nnc(NC(=O)NC2CCN(Cc3ccccc3)CC2)s1,inactive
23,O=C(NC1CCCc2c1[nH]c1ccccc21)c1ccccc1 (stereo not given),inactive
24,O=C(NCCN1CCOCC1)c1ccc2nc(-c3ccccc3)cn2c1,"inconclusive: 79.4 µM [inhibitor, partial curve]"

row,SMILES,Potency
1,COc1ccc(-c2cc(-c3cn[nH]c3)c3cncn3c2)cn1,inactive
2,CNC(=O)c1noc([C@@H]2CC(F)(F)CN2C(=O)c2ccc(C)cc2)n1,inactive
3,CN(C)C1CCN(Cc2cc3cc4c(cc3nc2-c2ccc(Cl)cc2)OCO4)C1 (stereo not given),active: 28.2 µM
4,COc1ccccc1CN1CCNc2cnc(Oc3ccccc3)cc2C1,inactive
5,CN(C)c1nccnc1OC1CCN(C(=O)CC2CCCC2)C1 (stereo not given),active: 35.5 µM
6,Cn1cncc1-c1nnc([C@H]2CCN(CC3CC3)C2)o1,"inconclusive: 100 µM [inhibitor, partial curve]"
7,O=C(Nc1cccc(F)c1)N1CC(Oc2ccc(-c3noc(C4CCOCC4)n3)cc2)C1,"inconclusive: 89.1 µM [inhibitor, partial curve]"
8,CCc1ccc(C(=O)Nc2ccc(-c3nnc4n3CCCC4)cc2)cc1,"inconclusive: 35.5 µM [inhibitor, partial curve]"
9,Cc1cc(C(=O)N2CCCCCCNC(=O)CC2)nn1C,inactive
10,O=C(Cc1ccccc1)NCc1ccnc2[nH]ccc12,active: 35.5 µM
11,COc1ccccc1NC(=O)c1cc2c(n1C)CCN(Cc1cccc(C)c1)C2,active: 31.6 µM
12,COc1ccc(-c2cc(N3CCCC(NC(=O)c4ccc(F)cc4F)C3)n[nH]2)cc1 (stereo not given),"inconclusive: 39.8 µM [inhibitor, partial curve]"
13,O=C(NCc1cccnc1N1CCOCC1)c1ccco1,"inconclusive: 56.2 µM [inhibitor, partial curve]"
14,COc1ccc(C(=O)N2CCN3C(=O)c4cc(-c5ccc(Cl)cc5)ccc4NC(=O)[C@@H]3C2)cc1,inactive
15,O=C(c1cccc2c1CCN2C(=O)Nc1ccccc1)N1CCN(c2ccccc2)CC1,active: 28.2 µM
16,CN1CCOC[C@H]1c1ncc(-c2ccc(F)cc2F)[nH]1,"inconclusive: 141 µM [inhibitor, single point]"
17,CN(C)S(=O)(=O)N1CCC(c2cc(-c3ccccc3)n[nH]2)CC1,"inconclusive: 44.7 µM [inhibitor, partial curve, poor fit]"
18,O=C(COc1ccc(F)cc1)NCC1Cn2cccc2CN1Cc1ccccc1 (stereo not given),inactive
19,CN1C(=O)COC[C@@H]1[C@H](O)c1ccc(NC(=O)c2ccc3c(c2)OCO3)cc1,"inconclusive: 63.1 µM [inhibitor, partial curve]"
20,COc1cccc(-c2ccc3c(n2)CNC(=O)CO3)c1,"inconclusive: 100 µM [inhibitor, partial curve]"
21,O=C(O)CCn1ncc2cc(OCC3CCN(C(=O)C4CC4)CC3)ccc21,"inconclusive: 79.4 µM [inhibitor, partial curve]"
22,O=C1c2cnc(-c3cccc(CO)c3)nc2OCCN1c1cccc(C(F)(F)F)c1,active: 11.2 µM
23,O=C(NCc1ccccc1F)c1noc(-c2ccc(F)cc2)n1,"inconclusive: 50.1 µM [inhibitor, partial curve]"
24,Cc1ccc(CN2C(=O)OC(c3cccc(NC(=O)c4ccc(C)cc4)c3)C2C(=O)NCC(C)C)cc1 (stereo not given),active: 7.08 µM

row,SMILES,Potency
1,CC(=O)N1CCC2(CC1)CC(N(Cc1ccc(F)cc1)C1CC1)CCO2 (stereo not given),inactive
2,Cc1oc2ccn(Cc3cccc(F)c3)c(=O)c2c1C(=O)NCc1ccccc1,"inconclusive: 39.8 µM [inhibitor, partial curve, poor fit]"
3,Cc1ccccc1S(=O)(=O)N1C[C@@H](Oc2cccnc2)C[C@H]1C(=O)NC1CC1,inactive
4,Cc1ccsc1C(=O)NC1CCCN(c2cc(-c3ccc(F)cc3)[nH]n2)C1 (stereo not given),"inconclusive: 44.7 µM [inhibitor, partial curve]"
5,Cc1ccc(NC(=O)N2CC3CC(C2)[C@H]2CCCC(=O)N2C3)cc1 (stereo not given in full),"inconclusive: 56.2 µM [inhibitor, partial curve, poor fit]"
6,COc1ccc(-c2noc([C@@H]3C[C@H](NCc4ccccn4)CN3C)n2)cc1,active: 12.6 µM
7,Cc1ccc(-c2cc(N3CCC(CNC(=O)c4n[nH]c5c4CCCC5)CC3)n[nH]2)cc1,"inconclusive: 31.6 µM [inhibitor, partial curve]"
8,CNC(=O)[C@H]1C[C@H](Oc2ccccc2)CN1C(=O)CCc1nc2ccccc2s1,"inconclusive: 12.6 µM [inhibitor, full curve, poor fit]"
9,CCCN(CC1CCOC1)C(=O)Nc1ccccc1Br (stereo not given),inactive
10,Cc1cc(CN(C)Cc2cn(-c3cccc(F)c3)nc2-c2ccc(C)o2)n[nH]1,"inconclusive: 35.5 µM [inhibitor, full curve]"
11,Cc1nn2c(c1-c1ccccc1[S+](C)(=O)[O-])N(Cc1ccccc1F)CCC2,inactive
12,COc1ccc(NC(=O)Nc2cccc(-c3ccc(N4CCOCC4)nn3)c2)cc1Cl,active: 0.631 µM
13,COc1ccc(-c2cc3nc4c(c(=O)n3[nH]2)CN(C(=O)CN(C)S(=O)(=O)c2cnc[nH]2)CC4)cc1,"inconclusive: 28.2 µM [inhibitor, partial curve]"
14,Cc1ccc(C2=NC3(CCN(C(=O)c4c[nH]c5ccccc45)CC3)ON2)cc1,"inconclusive: 50.1 µM [inhibitor, partial curve]"
15,Cc1nnc(-c2cc(-c3cccc(F)c3)ccn2)n1CCc1ccccc1,inactive
16,COc1ccc(NC(=O)C2CCN(C(=O)c3ncn4c3COC(c3ccccc3)C4)CC2)cc1Cl (stereo not given),active: 1.26 µM
17,Cc1cc(NC(=O)c2ccc3c(c2)N(C)C2CCCCCN2C3=O)ccc1Br (stereo not given),"inconclusive: 35.5 µM [inhibitor, full curve]"
18,COc1ccccc1C(=O)NCCC1CCN(C(=O)Nc2ccc(C)cc2)CC1,"inconclusive: 17.8 µM [inhibitor, partial curve, poor fit]"
19,COCCOC1CCN(C(=O)CCc2c[nH]c3ccccc23)CC1,"inconclusive: 44.7 µM [inhibitor, partial curve]"
20,Cc1ccccc1OCc1nc(C2CN(C(=O)Cc3c[nH]c4ccccc34)C2)no1,inactive
21,CCN1C(=O)CCc2cc(NC(=O)c3cncc(Br)c3)ccc21,inactive
22,O=C(NCCC1=CCCCC1)C1CCN(C(=O)c2ncn3c2COC(c2ccc(F)cc2)C3)CC1 (stereo not given),active: 22.4 µM
